Source: the supplement of paper PMC3334620
In all, about 33,000 sequences were measured (“E-score (-0.5 to 0.5)”: median about -0.011, highest 2% from about 0.28 on). The list shows a part of the results.

biological target: T1, Gcr1 (UniProt P07261); test: PBM E-score (8-mer binding enrichment) (E-score (-0.5 to 0.5)); higher = stronger / more preferred TF binding; most listed sequences are background and not binding sites; conditions: protein concentration: 100 nM; construct: GST-full length
T1 sequence: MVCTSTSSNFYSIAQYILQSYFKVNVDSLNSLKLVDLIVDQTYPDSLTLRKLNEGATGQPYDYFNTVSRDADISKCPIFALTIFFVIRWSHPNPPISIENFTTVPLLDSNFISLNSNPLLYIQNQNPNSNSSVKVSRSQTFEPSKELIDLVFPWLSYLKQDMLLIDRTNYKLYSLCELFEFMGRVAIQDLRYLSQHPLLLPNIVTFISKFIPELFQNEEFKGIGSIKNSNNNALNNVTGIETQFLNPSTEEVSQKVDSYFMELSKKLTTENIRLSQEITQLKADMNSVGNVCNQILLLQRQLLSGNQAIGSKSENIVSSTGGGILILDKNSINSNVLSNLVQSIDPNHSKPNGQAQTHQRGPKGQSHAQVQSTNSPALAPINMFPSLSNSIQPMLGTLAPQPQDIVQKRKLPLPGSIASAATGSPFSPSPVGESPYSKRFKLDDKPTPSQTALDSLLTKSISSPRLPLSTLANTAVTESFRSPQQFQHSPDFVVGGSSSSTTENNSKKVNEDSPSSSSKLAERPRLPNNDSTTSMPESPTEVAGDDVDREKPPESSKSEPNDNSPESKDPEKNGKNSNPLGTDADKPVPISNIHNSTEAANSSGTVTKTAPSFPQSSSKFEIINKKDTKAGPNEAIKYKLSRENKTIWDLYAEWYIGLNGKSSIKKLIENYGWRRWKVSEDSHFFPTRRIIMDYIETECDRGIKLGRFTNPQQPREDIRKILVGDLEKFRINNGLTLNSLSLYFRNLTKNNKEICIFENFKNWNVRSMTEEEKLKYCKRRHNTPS
Outline: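 Using PURExpress in vitro transcription/translation, GST-tagged yeast transcription factors were made in full-length or DNA-binding-domain form. These were applied at about 100-200 nM to double-stranded universal all-10-mer Agilent arrays, and bound protein was detected with fluorescent anti-GST. Scans were normalised with masliner before the Universal PBM Analysis Suite assigned E-scores to ungapped eight-base words pooled with their reverse complements.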

Sequence | PBM E-score
TGCGTCCA | 0.0639
AGTTCGTA | 0.0517
CTTGGTTC | 0.149
CAAACATG | 0.0455
ACCTTGGC | -0.0788
CTATGGAA | 0.181
ACATATCA | 0.129
CTGGAAAG | 0.0575
CGAGTGGC | -0.0703
CTTCCGCA | 0.108
ATGCATCC | -0.00178
GAATCCTA | 0.245
CTTGGTGC | 0.116
CCCGGTAC | -0.0724
CCTGCACA | -0.138
ATGCATAA | 0.047
ACCCTAAG | -0.0974
CATTCATA | 0.0926
GCGACCAA | 0.274
CGCGTAAA | 0.191
AACGGCAA | -0.0694
CTAGGGCA | -0.124
AGTCTCGC | -0.154
AAAGCCTA | -0.27
TCTCTTCA | 0.0625

Sequence | PBM E-score
TAGGTGAA | -0.109
ATGTGTTA | -0.00113
CTCCCCAG | -0.0641
GAAATGGA | 0.036
ACTATGCT | 0.0592
AGTTGTCG | 0.0459
AACACATT | 0.152
CAACACTA | 0.122
AGGCGGCA | 0.159
CCTAAGAC | -0.0669
GGCAACCC | 0.176
CATGGTCG | -0.172
AGATGTCG | 0.108
ACCCGCGA | -0.0673
AACTCGGG | 0.0114
TGAGTAAA | -0.0118
ACTTGGAT | 0.216
GGATAGGA | -0.00793
CGCGCCTA | 0.258
GAGCAGAA | -0.105
ATCCGTAA | 0.032
CGTGGAGC | -0.0506
CAGGAATG | 0.115
TTAAATAA | 0.164
ACAAGGCG | 0.0767

Sequence | PBM E-score
TCGCGCAA | 0.0621
GAGAAAAC | -0.02
AAATTACC | -0.0912
AGAGTAGC | -0.205
GAAAACGA | -0.00072
CTCAGAGC | -0.207
TGGTAACA | 0.121
AAAAAAAT | 0.261
GTATTATA | 0.131
ATGAGTTC | -0.0799
ATAACCGG | -0.0295
AGACTATG | -0.147
TCCGACCA | -0.112
CTGCAGTC | -0.0408
TATCAGAA | 0.0717
ATAATTGG | 0.226
ATATGAAA | 0.134
AATATAGT | 0.234
CATTAATG | 0.125
AGAGGCTC | 0.00285
GAGATTAA | 0.0329
ATTTGTTA | -0.0315
CCACAGTA | 0.00082
ACGGGCAG | -0.128
CAATGCAC | -0.232

Sequence | PBM E-score
CAGTAATA | 0.166
CGAGCGGA | -0.113
AATATGCC | -0.0464
CTTGGTAC | -0.0654
CTGATTAA | 0.148
CTTTTCAC | -0.101
GGGACTAC | -0.0471
GGAAGGAC | -0.12
GAGTTAAA | -0.101
GACGCAGA | 0.0512
GAGGGCGC | 0.114
CATAGATG | -0.0229
GGAGAGCA | -0.0289
TGTCTAAA | 0.00861
CGTCCAAG | -0.0458
ATCTTATC | 0.208
GGGCGCTA | 0.32
ATCCCAAG | 0.111
ACCCACAC | -0.0404
CGCAGCAA | 0.0303
AAATTGCT | -0.0445
AATCGTTC | -0.0317
ATCTGAAG | 0.224
AGTTGATG | 0.0862
CCTGGGTC | 0.00723

Sequence | PBM E-score
AAGTACAG | -0.0329
GTAAGGGA | -0.219
AAACGGGT | 0.136
GCAAACCC | -0.212
ACGACATA | -0.0239
AACGTTGC | 0.136
AGCAGCGA | -0.153
CTTAATCA | 0.00116
ACAATACT | -0.113
AAGCTTCA | -0.0647
CTAGGACA | 0.0711
CGCGAGTC | -0.109
CGAGTGTA | -0.0172
ACACGGAT | -0.132
CCTATAGG | 0.0723
CTTGCTGA | -0.266
CACCGCCC | -0.0346
CCGACTTC | 0.2
GCATTTGA | 0.0186
ACTTCGTC | -0.0295
AGTTCCGA | 0.119
ACGGGGTA | 0.129
AAGACTCT | -0.045
GGTTGTCA | 0.0338
AGGACCTC | 0.166

Sequence | PBM E-score
TGCATAAA | -0.00335
ATGACAAC | 0.0345
GCTCAACA | -0.223
AAGCGACT | -0.0563
GTGGCGAA | 0.0731
GAACAGCA | -0.107
ACAGTCGT | -0.255
CCGAGGAC | -0.0799
GAAACGTA | -0.078
CGCGGCAC | 0.0545
ACTTGCCT | -0.045
CACGAAGC | 0.311
GATGCGAC | 0.0751
GTTTCCCA | 0.0408
AAAATTCC | 0.238
GGAACAAC | -0.0437
ATCCTGCC | -0.0891
ACGTTGGG | 0.0445
GCTTACAC | -0.00529
CCGCTCAC | -0.0473
GGAGAGCC | -0.0346
AACGTGTC | -0.106
GAGGTAAA | -0.0518
GAGGGAAC | -0.0784
ACGGTATA | 0.172

Sequence | PBM E-score
CCGTAACG | 0.0354
TCAGGAGA | 0.026
ACAATAGC | 0.017
GTGCGGCA | -0.17
ACTTAAGA | 0.139
CCGTCTGA | -0.184
CCGTTTGA | -0.0777
ATCAGCTA | -0.136
CGCTCACA | -0.0516
AGGACCTG | -0.0376
AGTTCAGA | -0.157
CTAGCCCA | -0.124
CTGGCGGA | -0.126
CGATGACA | -0.0193
AGGATGTC | 0.275
GAAACATA | 0.11
CTACAACA | -0.0445
ACTATTGC | 0.0299
AAGTGAAA | 0.191
GCGCGCCC | 0.0734
GCGCACTA | 0.0267
CCATGAAG | -0.0409
